Test results: patent US20260250337A1, “HYBRID ANTIMICROBIAL PEPTIDES” (UNIVERSIDADE FEDERAL DO ABC, priority 2023, published 2026)
“Also recorded” adds a separate entry of the source. For some assays here: Part of at least one peptide drawing is inferred or uncertain, most often the ends. Some entries share one result that the patent states for a list of compounds. Some compounds share one range, which may span the group rather than tell each member. No end group written: not given here.

Assays:
bacterial strains = assay: Antimicrobial activity over the panel of strains; type: cell-based; details: for MIC range of the peptide over the strains: range over strains tested; for antimicrobial activity: range of concentrations tested
Protocol: Initially, the antimicrobial activity was determined by liquid growth inhibition assays, as previously described by Pedron et al.^62. Briefly, Peptone Broth and Potato Dextrose Broth (Invitrogen) were used for antibacterial and antifungal assays, respectively. Two-fold serial dilutions of peptides (0.09-50 μmol L^−1) and microorganisms (Serratia marcescens ATCC 4112, Enterobacter cloacae β-12, Micrococcus luteus A270, Bacillus megaterium ATCC 10778, Bacillus subtilis ATCC 6633, Candida albicans MDM8, and Candida tropicalis IOC 4560) were incubated at 37° C. for 18 h (for bacteria) or 24 h (for fungi), and microbial growth was assessed by absorbance measurements at 595 nm. Experiments were performed in three biological repeats.
(§1) Method. The minimal inhibitory concentration (MIC) against the ESKAPE pathogens was determined using the broth microdilution method^81, 82 in Luria-Bertani (LB) medium. The MIC value was defined as the lowest concentration of peptide at which no microbial growth was observed. A. baumannii ATCC19606, E. coli ATCC11775, E. coli AIC221, E. coli AIC222, K. pneumoniae ATCC13883, S. aureus ATCC12600 P. aeruginosa PAO1, and P. aeruginosa PA14 were incubated on agar plates, and after 24 h, three isolated colonies were inoculated to 5 mL of Luria-Bertani (LB) broth and maintained at 37° C. overnight with shaking. Peptides were then added to 96-well polystyrene microtiter plates at concentrations ranging from 0 to 128 μmol L^−1, and 5×10^5 CFU mL^−1 of each bacterium was inoculated in each well. The plates were incubated at 37° C. for 24 h. Bacterial growth was measured using a microplate reader at 610 nm. Three independent replicates were performed.

[1] = Resistance to degradation in fetal bovine serum; type: in vitro ADME
Protocol: The resistance to proteolytic degradation of the hybrid peptides was assessed by exposing them for 6 h to serum peptidases in a fetal bovine serum solution^68, 69 (FIG. 5a and Table S4). The peptide degradation kinetics were calculated by integrating the peak area of the peak in relation to the peptide at the beginning of the experiment (time=0) and comparing it to the integrated peak area relative to the peptides after exposure to the enzymes at time points: 0.5, 1, 2, 4, and 6 h (FIG. 5a and Table S4). […] However, AV was resistant to degradation against proteases, with almost 40% peptide content remaining after 4 h of exposure (FIG. 5a and Table S4). […] VP was almost entirely degraded after 30 min (22% of peptide remaining). […] D-amino acid substitutions have been used as alternatives to prevent the degradation of AMPs. For example, Qiu et. al. described a protonectin analog with a D-Lys residue in position 10 as an alternative to protonectin; this analog is not degraded and has higher antimicrobial activity against bacteria and fungi than the original peptide.
Methods. Stability assays were performed following the protocol described by Torres et al.^71. Briefly, a peptide solution was added to GIBCO fetal bovine serum diluted to 25% in water and kept at 37° C. The degradation kinetics were monitored by liquid chromatography and the percentage of peptide remaining was calculated by integrating the peptide peak area. The experiments were performed as three independent replicates, and aliquots were taken at 0, 0.5, 1, 2, 4, and 6 h.

[2] = Circular dichroism, helical fraction (Lifson-Roig); type: physicochemical; details: peptide 50 μmol L^−1; for Helical fraction (fH) PBS: PBS 10 mmol L^−1, pH 7.4; for Helical fraction (fH) POPC: POPC 10 mmol L^−1; for Helical fraction (fH) POPC:DOPE: POPC:DOPE 3:1, mol:mol; for Helical fraction (fH) POPC:DOPE / Helical fraction (fH) POPC:POPG: 10 mmol L^−1; for Helical fraction (fH) POPC:POPG: POPC:POPG 3:1, mol:mol; for Helical fraction (fH) SDS: SDS 20 mmol L^−1 in water; for Helical fraction (fH) TFE/Water: TFE in water (3:2, v:v)
Protocol: Method. Circular dichroism (CD) assays were performed with a Spectropolarimeter Jasco Mod. J-815 (JascoCorp). CD spectra were obtained in Far-UV (195-260 nm), and analyzed in the following solutions: water, 2,2,2-trifluoroethanol (TFE) in water (3:2, v:v), phosphate buffer saline (PBS, 10 mmol L^−1, pH 7.4), sodium dodecyl sulfate (SDS 20 mmol L^−1) in water, palmitoyloleoylphosphatidylcholine (POPC; 10 mmol L^−1), palmitoyloleoylphosphatidylcholine:dioleylphosphatidylethanolamine (POPC:DOPE; 3:1, mol:mol, 10 mmol L^−1) and palmitoyloleoylphosphatidylcholine:palmitoyloleoylphosphatidylglycerol (POPC:POPG; 3:1, mol:mol, 10 mmol L^−1) at a peptide concentration of 50 μmol L^−1. These experiments were performed as described in detail by Pedron et al.^62.

[3] = tested on: Plasmodium gallinaceum sporozoites; assay: Antiplasmodial activity, fluorescence microscopy; type: cell-based; details: for P. gallinaceum (% sporozoites at 0.8 μmol L^−1): fluorescent (propidium iodide stained) sporozoites, 37° C., 1 h; for antiplasmodial activity: P. gallinaceum sporozoites, concentration range tested
Protocol: Method. The activity of the peptides against Plasmodium gallinaceum sporozoites was determined by fluorescence microscopy, as previously described by Silva et. al.^83. Briefly, 9,000 sporozoites were isolated from the glands of infected Aedes aegypti mosquitos and incubated with serially diluted peptides (ranging from 0.1 to 1.6 μmol L^−1) at 37° C. for 1 h. A PBS solution and the surfactant digitonin^84, 85 were used as negative and positive controls, respectively. Propidium iodide was used to stain dead cells. Assays were executed using fluorescence microscopy. Three biological repeats each with three different mosquito batches (n=9) were used.

[4] = tested on: MCF-7 human breast cancer cells; assay: Anticancer activity, MTT assay; type: cell-based; details: incubation time not stated
Protocol: The anticancer activity assays were performed using MCF-10A human breast epithelial cells and MCF-7 mammary cancer cells as previously described by Pedron et al. 86. Briefly, the day before treatment, the cells were incubated at 37° C. and 5% CO2 for 24 h. The cells were treated with peptides ranging from 12.5 to 100 μmol L^−1 (MCF10-A cells) and 0.8 to 100 μmol L^−1 (MCF-7 cells) for 4 h and 24 h at 37° C., and cell viability was measured using 3-(4,5-Dimethylthiazol-2-yl)-2,5-diphenyltetrazolium bromide (MTT) assays 87. Three independent replicates were performed in each case.

P. aeruginosa = assay: MIC against P. aeruginosa; type: cell-based; details: strain not given
Protocol: as §1

[5] = tested on: Bacillus subtilis ATCC 6633; assay: Liquid growth inhibition assay; type: cell-based; details: range of concentrations tested

Substance | MIC range of the peptide over the strains (bacterial strains) [µM] | time within which totally degraded [1] [min] | Helical fraction (fH) PBS [2] | Helical fraction (fH) POPC [2] | Helical fraction (fH) POPC:DOPE [2] | Helical fraction (fH) POPC:POPG [2] | Helical fraction (fH) SDS [2] | Helical fraction (fH) TFE/Water [2] | Helical fraction (fH) Water [2] | P. gallinaceum (% sporozoites at 0.8 μmol L^−1) [3] [%] | antiplasmodial activity [3] | concentration with activity against MCF-7 human breast cancer cells [4] [µmol/L] | antimicrobial activity (bacterial strains) | MIC against all bacteria strains (bacterial strains) [µM] | MIC against P. aeruginosa (P. aeruginosa) [µM] | activity against Bacillus subtilis [5]
FLGAIGNVLKSIL-NH2 [TV, Phe-Leu-Gly-Ala-Ile-Gly-Asn-Val-Leu-Lys-Ser-Ile-Leu] | 3.1 to 25 | ≤ 30 | – | – | – | – | – | – | – | – | – | – | – | – | – | –
FLGSLWRKAGTVF-NH2 [VD] | – | – | 0 | 0.10 | 0.09 | 0.04 | 0.20 | 0.14 | 0.05 | 0 | did not exhibit significant antiplasmodial activity; also recorded: did not present antiplasmodial activity | 25 | lower antimicrobial activities than the corresponding template peptides | – | – | –
FLGTLWGGAKGVF-NH2 [VP] | – | – | 0 | 0.07 | 0.02 | 0.30 | 0.12 | 0.07 | 0.01 | 92 | exhibited antiplasmodial activity | – | lower antimicrobial activities than the corresponding template peptides | ≥ 128 | 128 | –
FLPLIGRVLSGIL-NH2 [Temporin A, Phe-Leu-Pro-Leu-Ile-Gly-Arg-Val-Leu-Ser-Gly-Ile-Leu, reference compound] | 3.1 to 25 | ≤ 30 | – | – | – | – | – | – | – | – | – | – | – | – | – | –
FLPLLWRVASGVF-NH2 [VT, Phe-Leu-Pro-Leu-Leu-Trp-Arg-Val-Ala-Ser-Gly-Val-Phe] | 3.1 to 25 | ≤ 30 | – | – | – | – | – | – | – | – | – | – | – | – | – | –
H-GLLKRIKTLL-NH2 [Anoplin, reference compound] | – | – | 0.10 | 0.05 | 0.12 | 0.30 | 0.71 | 0.58 | 0.06 | 90 | – | – | – | – | – | not active
ILGTILGLLKGL-NH2 [Protonectin, reference compound] | 3.1 to 25 | – | 0.07 | 0.33 | 0.58 | 0.64 | 0.69 | 0.71 | 0.10 | 26 | – | – | – | – | 128 | not active
SLGALINVLKSGG-NH2 [DV, Ser-Leu-Gly-Ala-Leu-Ile-Asn-Val-Leu-Lys-Ser-Gly-Gly] | – | – | – | – | – | – | – | – | – | – | – | – | – | ≥ 128 | – | –
